The supplement of paper PMC9588766
Structures can show the parent of a compound that is named as a salt. ± gives the standard deviation of the averaged measurements. The full ranking holds about 2,000 compounds; the median of “cell viability relative to DMSO control (compound alone)” is about 0.98, and the lowest 2% start at about 0.23. The list shows a part of the results.

These compounds were tested on PDC-DUC18828 (assay: cell viability relative to DMSO control (compound alone) (fraction); PDC-DUC18828 is a patient-derived cholangiocarcinoma cell line; higher = less growth inhibition). Conditions: 1 µM; 72 h.
Procedure: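 Selleck Bioactive library screen in the patient-derived FGFR2-G3BP2 fusion-positive ICC cell line PDC-DUC18828 (500 cells/well). Each compound was tested at 1 uM alone, in triplicate, for 72 h. Viability was read by CellTiter-Glo and normalised to plate DMSO controls.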

Structure (SMILES)	cell viability
CNC[C@H](O)c1cccc(O)c1 [Phenylephrine HCl]	0.954 ± 0.058
N[C@@H]1CN(c2c(F)cc3c(=O)c(C(=O)O)cn([C@@H]4C[C@@H]4F)c3c2Cl)CC12CC2 [Sitafloxacin Hydrate]	1.08 ± 0.014
Cc1cc(N2CCOCC2)ccc1Nc1nc(NC2CCCCC2)c2[nH]cnc2n1	0.745 ± 0.03
C[C@H](NC(=O)Cc1cc(F)cc(F)c1)C(=O)N[C@@H]1C(=O)N(C)c2ccccc2-c2ccccc21	0.969 ± 0.031
O=C(O)c1ccc(Nc2ncc3c(n2)-c2ccc(Cl)cc2C(c2c(F)cccc2F)=NC3)cc1	0.482 ± 0.031
OCc1ccc(-c2ccc(-c3ccc(CO)s3)o2)s1	0.963 ± 0.038
O=c1c(-c2ccc(O)cc2)coc2cc(O)cc(O)c12 [Genistein]	0.997 ± 0.029
CSc1cccc(Nc2ncc3cc(-c4c(Cl)cccc4Cl)c(=O)n(C)c3n2)c1	0.966 ± 0.069
C=CCc1ccc(O)c(-c2ccc(O)c(CC=C)c2)c1 [Honokiol]	0.985 ± 0.017
CNC(=C[N+](=O)[O-])NCCSCc1ccc(CN(C)C)o1 [Ranitidine]	1.04 ± 0.024
COc1cc2c(cc1OC)-c1cc3ccc(OC)c(OC)c3c[n+]1CC2 [Palmatine chloride]	0.918 ± 0.074
COC(=O)[C@H]1[C@H]2C[C@@H]3c4[nH]c5cc(OC)ccc5c4CCN3C[C@H]2C[C@@H](OC(=O)c2cc(OC)c(OC)c(OC)c2)[C@@H]1OC [Reserpine]	1.07 ± 0.085
Cc1nc(C)c(Cl)c(O)c1Cl [Clopidol]	1.1 ± 0.057
CCN(CC)CCCC(C)Nc1c2ccc(Cl)cc2nc2ccc(OC)cc12 (stereo not drawn) [Quinacrine 2HCl]	1.01 ± 0.025
O=C(O)P(=O)(O)O [Foscarnet Sodium]	1.04 ± 0.023
CC(C)(C)NS(=O)(=O)c1cncc(-c2cc(F)c3nc(N)nn3c2)c1	0.924 ± 0.01
CNc1ncc2cc(-c3cc(NC(=O)NCCC(C)(C)C)c(F)cc3C)c(C)nc2n1	0.634 ± 0.03
COc1cc(C=O)ccc1O [Vanillin]	0.884 ± 0.035
C1=N/C2=N/c3ccc(OCCN4CCCC4)c(c3)COC/C=C/COCc3cccc(c3)C(=C1)N2 [Pacritinib (SB1518)]	0.881 ± 0.055
CN(C)C(=O)c1ccc(S(=O)(=O)c2ccc(NC(=O)[C@@](C)(O)C(F)(F)F)c(Cl)c2)cc1	0.943 ± 0.07
C#C[C@]1(O)CC[C@H]2[C@@H]3CCc4cc(OC)ccc4[C@H]3CC[C@@]21C [Mestranol]	1.08 ± 0.03
CC(C)NCC(O)c1ccc(NS(C)(=O)=O)cc1 (stereo not drawn) [Sotalol]	1.03 ± 0.044
CC(=O)N1CCN(c2ccc(OCC3COC(Cn4ccnc4)(c4ccc(Cl)cc4Cl)O3)cc2)CC1 (stereo not drawn) [Ketoconazole]	0.96 ± 0.039
CN(CCOc1ccc(NS(C)(=O)=O)cc1)CCc1ccc(NS(C)(=O)=O)cc1 [Dofetilide]	1.03 ± 0.05
Cc1[nH]c(/C=C2\C(=O)Nc3ccccc32)c(C)c1CCC(=O)O [TSU-68 (SU6668, Orantinib)]	0.972 ± 0.04
CO[C@H]1C[C@@H]2CC[C@@H](C)[C@@](O)(O2)C(=O)C(=O)N2CCCC[C@H]2C(=O)O[C@H]([C@H](C)C[C@@H]2CC[C@@H](O)[C@H](OC)C2)CC(=O)[C@H](C)/C=C(\C)[C@@H](O)[C@@H](OC)C(=O)[C@H](C)C[C@H](C)/C=C/C=C/C=C/1C [Rapamycin (Sirolimus)]	0.636 ± 0.01

Structure (SMILES)	cell viability
N[C@@H]1CCCN(c2c(/C=C3\SC(=O)NC3=O)cccc2-c2ccccc2)C1	0.901 ± 0.096
COc1cc2ncnc(Nc3ccc(Cl)cc3F)c2cc1OC	0.9 ± 0.042
N#Cc1ccc2[nH]c(O)c(-c3ccc(CN4CCOCC4)cn3)c2c1	1.14 ± 0.082
Oc1ccc(Nc2nc(-c3ccc(Cl)cc3)cs2)cc1	0.947 ± 0.053
O=C(CCCCCCNC(=O)c1cnc(N(c2ccccc2)c2ccccc2)nc1)NO [Rocilinostat (ACY-1215)]	0.939 ± 0.049
O=c1ncccn1[C@@H]1O[C@H](CO)[C@@H](O)[C@H]1O [Zebularine]	0.981 ± 0.025
NC(CO)(CO)CO [Trometamol]	1.08 ± 0.032
Clc1ccc(C(Cn2ccnc2)OCc2c(Cl)cccc2Cl)c(Cl)c1 (stereo not drawn) [Isoconazole nitrate]	0.929 ± 0.086
CNc1nc(Nc2cnn([C@H]3CCN(C4COC4)C[C@@H]3F)c2Cl)ncc1C(F)(F)F	0.942 ± 0.072
NC(=O)N1c2ccccc2C=Cc2ccccc21 [Carbamazepine]	0.883 ± 0.029
CC(C)n1nc(-c2cc3cc(O)ccc3[nH]2)c2c(N)ncnc21	0.347 ± 0.013
O=c1cc(-c2ccc(O)cc2)oc2cc(O)cc(O)c12 [Apigenin]	1.02 ± 0.083
CO[C@H]1/C=C/O[C@@]2(C)Oc3c(C)c(O)c4c(c3C2=O)C2=NC3(CCN(CC(C)C)CC3)NC2=C(NC(=O)/C(C)=C\C=C\[C@H](C)[C@H](O)[C@@H](C)[C@@H](O)[C@@H](C)[C@H](OC(C)=O)[C@@H]1C)C4=O [Rifabutin]	0.932 ± 0.034
C[C@@H](N)[C@H]1CC[C@H](C(=O)Nc2ccncc2)CC1	1.11 ± 0.05
COc1ccc(-c2cc(=O)c3c(O)cc(O)cc3o2)cc1O [Diosmetin]	0.967 ± 0.04
CN1CC[C@H](c2c(O)cc(O)c3c(=O)cc(-c4ccccc4Cl)oc23)[C@H](O)C1 [Flavopiridol HCl]	0.271 ± 0.024
CN1CC[C@H](c2c(O)cc(O)c3c(=O)cc(-c4ccccc4Cl)oc23)[C@H](O)C1 [Flavopiridol (Alvocidib)]	0.257 ± 0.024
Nc1nc(Cl)nc2c1ncn2[C@@H]1O[C@H](CO)[C@@H](O)[C@@H]1F [Clofarabine]	0.23 ± 0.0086
O=C1CN2Cc3c(ccc(Cl)c3Cl)N=C2N1 [Anagrelide HCl]	0.97 ± 0.051
CN(C)Cc1c(C(=O)NCCOc2ccc(C(=O)NO)cc2)oc2ccccc12	0.927 ± 0.016
O=c1[nH]c(=O)n(C2CC(O)C(CO)O2)cc1Br (stereo not drawn) [Bromodeoxyuridine (BrdU)]	1 ± 0.035
CC[C@H]1OC(=O)[C@H](C)[C@@H](O[C@H]2C[C@@](C)(OC)[C@@H](O)[C@H](C)O2)[C@H](C)[C@@H](O[C@@H]2O[C@H](C)C[C@H](N(C)C)[C@H]2O)[C@](C)(O)C[C@@H](C)/C(=N\OCOCCOC)[C@H](C)[C@@H](O)[C@]1(C)O [Roxithromycin]	0.975 ± 0.043
CC(=O)N1c2ccc(-c3ccc(C(=O)O)cc3)cc2[C@H](Nc2ccc(Cl)cc2)C[C@@H]1C	0.588 ± 0.041
Nc1nc(F)nc2c1ncn2[C@@H]1O[C@H](CO)[C@@H](O)[C@@H]1O [Fludarabine]	1.02 ± 0.059
O=C(NCCS(=O)(=O)c1ccc(C(F)(F)F)cn1)c1ccc(Cl)cc1	1.02 ± 0.049
CC(C)CC(=O)Nc1n[nH]c2c1CN(C(=O)C1CCN(C)CC1)C2(C)C	0.909 ± 0.042

Structure (SMILES)	cell viability
CCOC(=O)[C@H](CCc1ccccc1)N[C@H]1CCc2ccccc2N(CC(=O)O)C1=O [Benazepril HCl]	1.07 ± 0.061
Cn1cc(-c2ccc(F)c(C(F)(F)F)c2)nc1C1CCN(c2ncnc3[nH]ncc23)CC1	0.957 ± 0.046
O=C(Nc1c[nH]nc1-c1nc2ccc(CN3CCOCC3)cc2[nH]1)NC1CC1	0.532 ± 0.03
COC1=C(OC)C(=O)C(CCCCCCCCCCO)=C(C)C1=O [Idebenone]	1.06 ± 0.017
COc1cc(OC)c2c(=O)[nH]c(-c3cc(C)c(OCCO)c(C)c3)nc2c1	0.972 ± 0.032
O=C(c1cccc(Cl)c1F)N1CCN(Cc2cccc(Nc3nccs3)n2)CC1	0.364 ± 0.032
CC(C)[C@H]1C(=O)N[C@@H](CCCNC(=N)N)C(=O)NCC(=O)N[C@@H](CC(=O)O)C(=O)N[C@H](Cc2ccccc2)C(=O)N1C [Cilengitide]	0.97 ± 0.022
O=C(Nc1cccc2c(=O)cc(-c3nnn[nH]3)oc12)c1ccc(OCCCCc2ccccc2)cc1 [Pranlukast]	0.924 ± 0.049
Cc1ccc(C(=O)Nc2ccc(CN3CCN(C)CC3)c(C(F)(F)F)c2)cc1C#Cc1cnc2cccnn12	0.258 ± 0.013
CC(C)(C)NC[C@H](O)COc1nsnc1N1CCOCC1 [Timolol Maleate]	0.984 ± 0.025
N#Cc1ccc(-c2c(-c3ncn[nH]3)sc(N3CCOCC3)c2C#N)c(F)c1	0.71 ± 0.023
C=C1c2cccc(O)c2C(=O)C2=C(O)[C@]3(O)C(=O)C(C(N)=O)=C(O)[C@@H](N(C)C)[C@@H]3[C@@H](O)[C@H]12 [Methacycline HCl]	1.05 ± 0.061
Cn1c(=O)cc(N2CCC[C@@H](N)C2)n(Cc2cc(F)ccc2C#N)c1=O [Trelagliptin]	0.927 ± 0.031
O=C(Nc1ccc(OC(F)(F)F)cc1)c1sccc1NCc1ccnc2ccccc12	0.948 ± 0.027
COc1cc(/C=C/C(=O)N2CCN(CC(=O)N3CCCC3)CC2)cc(OC)c1OC [Cinepazide maleate]	0.96 ± 0.066
CCCNC(C)C(=O)Nc1ccccc1C (stereo not drawn) [Prilocaine]	0.961 ± 0.042
CC(COc1ccccc1)N(CCCl)Cc1ccccc1 (stereo not drawn) [Phenoxybenzamine HCl]	0.938 ± 0.02
Nc1ncn([C@@H]2O[C@H](CO)[C@@H](O)[C@H]2O)c(=O)n1 [Azacitidine]	0.976 ± 0.031
CC(=O)Nc1cccc2c1c(Sc1ccc(Cl)cc1)c(C)n2CC(=O)O	1.07 ± 0.036
Cc1c(-c2ccnn2C)cc(C(=O)NCc2ccc(S(C)(=O)=O)cn2)c(=O)n1-c1cccc(C(F)(F)F)c1 [Alvelestat (AZD9668)]	1.03 ± 0.025
O=C(NC1CCN(CCCCC2(C(=O)NCC(F)(F)F)c3ccccc3-c3ccccc32)CC1)c1ccccc1-c1ccc(C(F)(F)F)cc1 [Lomitapide Mesylate]	0.915 ± 0.069
COc1ccc(C(=O)CC2(O)C(=O)Nc3c(Cl)ccc(Cl)c32)cc1 (stereo not drawn)	0.775 ± 0.029
CC(C)(C)Cn1c(N)nc2ccc(-c3[nH]c(C(C)(C)C)nc3-c3ccc(F)cc3)nc21	0.936 ± 0.039
CCCN[C@H]1CCc2nc(N)sc2C1 [Pramipexole]	0.975 ± 0.022
CCOC(=O)c1ccc(OC(=O)CCCCCNC(=N)N)cc1 [Gabexate Mesylate]	1.05 ± 0.054
COc1cccc(-c2ccc(NC(=O)C3=C(C(=O)O)CCC3)c(F)c2)c1 [Vidofludimus]	1.06 ± 0.069
